Measurements reported in patent publication US9605027B2, “Polypeptides that bound to IL-23 receptor and inhibit binding of IL-23 and cell signaling thereof” (Medical Diagnostic Laboratories, LLC, priority 2011, dated 2017).
Not every detail of the peptide structures is certain; ends, links or a residue may be inferred. Ends that are not written are not given here.

Biological target: IL-23R pathway in STAT3-Luc reporter DB cells (Homo sapiens, UniProt Q5VWK5)
Assay: Cell-based STAT3-Luc reporter DB cell assay (DB-Luc), inhibition of IL-23
Conditions: 10 μM and 2 μM peptide, 50 ng/ml IL-23
Method: (§1) The Cignal STAT3 reporter (SA Biosciences, CCS-9028L), designed to measure the transcriptional activity of STAT3 homodimers, was transiently transfected into the DB cells. The stably transfected STAT3-Luc reporter clone was selected using 200 ng/ml of Hygromycin B.
The stably transfected STAT3-Luc reporter DB cells (0.5×10^6) were cultured in 100 μl of RPMI+10% FBS. IL-23 was added to the cells and incubated at 37° C. for 4 hours. Luciferase activity was measured using Dual-Glo luciferase assay system (Promega).
The isolated cyclic polypeptide no. 23.15-Fc fusion protein and cyclic polypeptide no. 23.19 were used in a cell-based assay to measure the IC50 values. The stably transfected STAT3-Luc reporter DB cells (0.5×10^6) were cultured in 100 μl of RPMI+10% FBS. […] Luciferase activity was measured using Dual-Glo luciferase assay system (Promega). […]
The isolated peptide no. […] Luciferase activity was measured using Dual-Glo luciferase assay system (Promega). […]
as §1, with “CCS-9028L), which is” for “CCS-9028L),”, “B. The activity of IL-23R pathway can be measured by the transcriptional activity of STAT3 homodimers. […]” for “B.”

IL-23R pathway in STAT3-Luc reporter DB cells, sequence (Q5VWK5 24-629 limits assumed): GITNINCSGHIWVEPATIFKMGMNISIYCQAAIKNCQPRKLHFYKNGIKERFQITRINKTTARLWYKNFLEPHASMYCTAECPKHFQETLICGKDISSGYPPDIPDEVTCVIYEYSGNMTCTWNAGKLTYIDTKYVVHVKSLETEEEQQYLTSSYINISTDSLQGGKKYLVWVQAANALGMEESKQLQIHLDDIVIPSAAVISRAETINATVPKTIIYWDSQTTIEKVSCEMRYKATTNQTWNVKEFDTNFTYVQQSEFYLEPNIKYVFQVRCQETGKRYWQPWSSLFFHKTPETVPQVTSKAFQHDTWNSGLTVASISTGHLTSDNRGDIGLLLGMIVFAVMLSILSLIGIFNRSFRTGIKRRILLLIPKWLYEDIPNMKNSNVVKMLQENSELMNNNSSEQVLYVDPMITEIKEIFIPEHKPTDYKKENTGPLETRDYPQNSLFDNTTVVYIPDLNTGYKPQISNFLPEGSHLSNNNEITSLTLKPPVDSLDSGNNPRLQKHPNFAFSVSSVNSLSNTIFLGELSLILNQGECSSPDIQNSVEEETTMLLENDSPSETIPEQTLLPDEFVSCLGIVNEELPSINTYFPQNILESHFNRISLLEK

MKTWVDYWLETQ [7 (SEQ ID NO: 156)]
inhibitory activity in cell based luciferase assay: better than that of peptide no. 23.19
